Measured values reported in patent US5294605A, “Amphiphilic peptide compositions and analogues thereof” (The Scripps Research Institute, priority 1991, dated 1994).
“And” between values parts separate entries of the source, which are not always exact repeats. Identical values can stand only once. Like-named read-outs stand apart in the source and are kept apart here. At least one peptide structure holds a part that was inferred or is arguable (an end, a ring closure or a residue). Square brackets hold non-standard residues; d marks the D form. Ends that are not written are not given here. Peptide text beside a SMILES is read from it. Met(O) = CS(=O)CC[C@H](N)C(=O)O

What was measured:
Assay type in all cases: cell-based
[1] = system: Escherichia coli; details: LB medium
Method: (§1) For the following Examples 3-9, antimicrobial assays were carried out in 96-well tissue culture plates. Each well was incubated with a given microorganism (Escherichia coli, Staphylococcus epidermidis, or Pseudomonas aeruginosa) suspended in LB medium. Upon the addition of the parent peptide having the structural formula hereinabove described, or its substitution analogues, or of Peptide I (dissolved in 1 X PBS, pH 7.0) each well contained a final cell density of 1.0×10^6 colony forming units (CFU)/ml. The final peptide concentrations ranged from 1.5 μg/ml to greater than 100 μg/ml.
(§2) Addition of peptides to the wells was defined as time zero. At twenty hours, the plates were placed in a Titertek Multiskan apparatus and the O.D.620 determined. The plates as well as the initial innoculum were incubated at 37° C.
(§3) Five wells per plate contained media alone, while five others contained medium plus cells. These controls were used to eliminate the possibility of media contamination while providing a measure of uninhibited growth of the microorganisms.
(§4) The degree of peptide activity was determined by comparing the substitution analogues with uninhibited growth of the control cells over a twenty-hour period.
(§5) as hereinabove described and analogues thereof wherein a methionine sulfoxide residue was substituted for various amino acid residues of the parent peptide were prepared as hereinabove described in Example 1 and tested for minimum inhibitory concentration with respect to E. coli, P. aeruginosa, and S. epidermidis at a concentration given in μg/ml, and for percent hemolysis of human red blood cells as hereinabove described in Example 2. The minimum inhibitory concentration and percent hemolysis (at a concentration of 100 μg/ml) are listed below in Table I. As used herein, the heading "Amino Acid Residue Substituted" refers to the number of the amino acid residue in the peptide which is substituted with a desired amino acid residue. All other residues remain the same as that of the normal peptide sequence. The term "Minimum Inhibitory Concentration" (MIC) as used herein indicates the minimum concentration of peptide in μg/ml needed to achieve 100 percent effective growth inhibition of the organism.

[2] = system: Pseudomonas aeruginosa; details: LB medium
Method: as §1, §2, §3, §4, §5

[3] = system: Staphylococcus epidermidis; experiment: Antimicrobial assay in 96-well plates, LB medium (Example 2), MIC
[4] = system: E. coli ATCC 25922; experiment: Antibacterial assay, NCCLS M7-T2 microdilution (Example 15), MIC
Method: (§6) The procedure for the following antibacterial assay is based upon the guidelines of the National Committee for Clinical Laboratory Standards, Document M7-T2, Volume 8, No. 8, 1988.
(§7) Stock solutions of the following Peptides (SEQ ID NO:4) and (SEQ ID NO:64) through (SEQ ID NO:68) in accordance with the present invention are prepared at a concentration of 512 μg/ml in sterile deionized distilled water and stored at -70° C.
(§8) The stock peptide solution was diluted in serial dilutions (1:2) down the wells of a microtiter plate so that the final concentrations of peptides in the wells were 0.25, 0.50, 1, 2, 4, 8, 16, 32, 64, 128, and 256 μg/ml. 1-5×10^5 CFUs/ml of either S. aureus ATCC 25923, E. coli ATCC 25922, or P. aeruginosa ATCC 27853 were added to the wells in full strength Mueller Hinton broth (BBL 11443) from a mid-log culture. The inoculum is standarized spectrophotometrically at 600 nm and is verified by colony counts. […] Minimal inhibitory concentration is defined as the lowest concentration of peptide which produces a clear well in the microtiter plate.
(§9) For purposes of explanation of Table XI below, S is the MIC of the peptide against S. aureus, P is the MIC of the peptide against P. aeruginosa, and E is the MIC of the peptide against E. coli.

[5] = system: P. aeruginosa ATCC 27853; experiment: as above
Method: as §6, §7, §8, §9

[6] = system: S. aureus ATCC 25923; experiment: as above
Method: as §6, §7, §8, §9

[7] = Table VI, methionine sulfoxide diastereomer fractions, 20 hours
[8] = Table IV, analogues substituted at residues 4 and 11, 20 hours
[9] = Table II, lysine substitutions, 20 hours
[10] = Table XII, procedure of Example 15 repeated, amide-terminated peptides
[11] = Table XI, Mueller Hinton broth, 16-20 hours 37° C., 1-5×10^5 CFUs/ml

CC(=O)N[C@@H](CC(C)C)C(=O)N[C@@H](CCCCN)C(=O)N[C@@H](CC(C)C)C(=O)N[C@@H](CC[S+](C)[O-])C(=O)N[C@@H](CCCCN)C(=O)N[C@@H](CCCCN)C(=O)N[C@@H](CC(C)C)C(=O)N[C@@H](CC(C)C)C(=O)N[C@@H](CCCCN)C(=O)N[C@@H](CCCCN)C(=O)N[C@@H](CC(C)C)C(=O)N[C@@H](CCCCN)C(=O)N[C@@H](CCCCN)C(=O)N[C@@H](CC(C)C)C(=O)N[C@@H](CC(C)C)C(=O)N[C@@H](CCCCN)C(=O)N[C@@H](CCCCN)C(=O)N[C@@H](CC(C)C)C(N)=O (single isomer, unassigned) [4 (SEQ ID NO: 8) 0/100]
Min. Inhibitory Concentration E. Coli [1, 7]: > 10 µg/mL | Min. Inhibitory Concentration P. Aeruginosa [2, 7]: 5 µg/mL

CC(=O)N[C@@H](CC(C)C)C(=O)N[C@@H](CCCCN)C(=O)N[C@@H](CC(C)C)C(=O)N[C@@H](CC[S+](C)[O-])C(=O)N[C@@H](CCCCN)C(=O)N[C@@H](CCCCN)C(=O)N[C@@H](CC(C)C)C(=O)N[C@@H](CC(C)C)C(=O)N[C@@H](CCCCN)C(=O)N[C@@H](CCCCN)C(=O)N[C@@H](CC(C)C)C(=O)N[C@@H](CCCCN)C(=O)N[C@@H](CCCCN)C(=O)N[C@@H](CC(C)C)C(=O)N[C@@H](CC(C)C)C(=O)N[C@@H](CCCCN)C(=O)N[C@@H](CCCCN)C(=O)N[C@@H](CC(C)C)C(N)=O (single isomer, unassigned) [4 (SEQ ID NO: 8) 100/0]
Min. Inhibitory Concentration E. Coli [1, 7]: > 10 µg/mL | Min. Inhibitory Concentration P. Aeruginosa [2, 7]: > 5 µg/mL

CC(=O)N[C@@H](CC(C)C)C(=O)N[C@@H](CCCCN)C(=O)N[C@@H](CC(C)C)C(=O)N[C@@H](CC(C)C)C(=O)N[C@@H](CCCCN)C(=O)N[C@@H](CCCCN)C(=O)N[C@@H](CC(C)C)C(=O)N[C@@H](CC(C)C)C(=O)N[C@@H](CCCCN)C(=O)N[C@@H](CCCCN)C(=O)N[C@@H](CC[S+](C)[O-])C(=O)N[C@@H](CCCCN)C(=O)N[C@@H](CCCCN)C(=O)N[C@@H](CC(C)C)C(=O)N[C@@H](CC(C)C)C(=O)N[C@@H](CCCCN)C(=O)N[C@@H](CCCCN)C(=O)N[C@@H](CC(C)C)C(N)=O (single isomer, unassigned) [11 (SEQ ID NO: 15) 0/100]
Min. Inhibitory Concentration E. Coli [1, 7]: 10 µg/mL | Min. Inhibitory Concentration P. Aeruginosa [2, 7]: 5 µg/mL

CC(=O)N[C@@H](CC(C)C)C(=O)N[C@@H](CCCCN)C(=O)N[C@@H](CC(C)C)C(=O)N[C@@H](CC(C)C)C(=O)N[C@@H](CCCCN)C(=O)N[C@@H](CCCCN)C(=O)N[C@@H](CC(C)C)C(=O)N[C@@H](CC(C)C)C(=O)N[C@@H](CCCCN)C(=O)N[C@@H](CCCCN)C(=O)N[C@@H](CC[S+](C)[O-])C(=O)N[C@@H](CCCCN)C(=O)N[C@@H](CCCCN)C(=O)N[C@@H](CC(C)C)C(=O)N[C@@H](CC(C)C)C(=O)N[C@@H](CCCCN)C(=O)N[C@@H](CCCCN)C(=O)N[C@@H](CC(C)C)C(N)=O (single isomer, unassigned) [11 (SEQ ID NO: 15) 100/0]
Min. Inhibitory Concentration E. Coli [1, 7]: > 10 µg/mL | Min. Inhibitory Concentration P. Aeruginosa [2, 7]: 2.5 µg/mL

CC(=O)N[C@@H](CC(C)C)C(=O)N[C@@H](CCCCN)C(=O)N[C@@H](CC(C)C)C(=O)N[C@@H](CC(C)C)C(=O)N[C@@H](CCCCN)C(=O)N[C@@H](CCCCN)C(=O)N[C@@H](CC[S+](C)[O-])C(=O)N[C@@H](CC(C)C)C(=O)N[C@@H](CCCCN)C(=O)N[C@@H](CCCCN)C(=O)N[C@@H](CC(C)C)C(=O)N[C@@H](CCCCN)C(=O)N[C@@H](CCCCN)C(=O)N[C@@H](CC(C)C)C(=O)N[C@@H](CC(C)C)C(=O)N[C@@H](CCCCN)C(=O)N[C@@H](CCCCN)C(=O)N[C@@H](CC(C)C)C(N)=O (stereo partly shown) [7 (SEQ ID NO: 11) 0/100] (Ac-LKLLKK[Met(O)]LKKLKKLLKKL-NH2)
Min. Inhibitory Concentration E. Coli [1, 7]: 5 µg/mL | Min. Inhibitory Concentration P. Aeruginosa [2, 7]: 2.5 µg/mL

CC(=O)N[C@@H](CC(C)C)C(=O)N[C@@H](CCCCN)C(=O)N[C@@H](CC(C)C)C(=O)N[C@@H](CC[S+](C)[O-])C(=O)N[C@@H](CCCCN)C(=O)N[C@@H](CCCCN)C(=O)N[C@@H](CC(C)C)C(=O)N[C@@H](CC(C)C)C(=O)N[C@@H](CCCCN)C(=O)N[C@@H](CCCCN)C(=O)N[C@@H](CCCCN)C(=O)N[C@@H](CCCCN)C(=O)N[C@@H](CCCCN)C(=O)N[C@@H](CC(C)C)C(=O)N[C@@H](CC(C)C)C(=O)N[C@@H](CCCCN)C(=O)N[C@@H](CCCCN)C(=O)N[C@@H](CC(C)C)C(N)=O (stereo partly shown) [Analogue 9] (Ac-LKL[Met(O)]KKLLKKKKKLLKKL-NH2)
Min. Inhibitory Concentration E. Coli [1, 8]: 100 µg/mL | Min. Inhibitory Concentration P. Aeruginosa [2, 8]: 50 µg/mL | Min. Inhibitory Concentration S. epidermidis [3, 8]: > 100 µg/mL

CC(=O)N[C@@H](CC(C)C)C(=O)N[C@@H](CCCCN)C(=O)N[C@@H](CC(C)C)C(=O)N[C@@H](CCCCN)C(=O)N[C@@H](CCCCN)C(=O)N[C@@H](CCCCN)C(=O)N[C@@H](CC(C)C)C(=O)N[C@@H](CC(C)C)C(=O)N[C@@H](CCCCN)C(=O)N[C@@H](CCCCN)C(=O)N[C@@H](CC[S+](C)[O-])C(=O)N[C@@H](CCCCN)C(=O)N[C@@H](CCCCN)C(=O)N[C@@H](CC(C)C)C(=O)N[C@@H](CC(C)C)C(=O)N[C@@H](CCCCN)C(=O)N[C@@H](CCCCN)C(=O)N[C@@H](CC(C)C)C(N)=O (stereo partly shown) [Analogue 10] (Ac-LKLKKKLLKK[Met(O)]KKLLKKL-NH2)
Min. Inhibitory Concentration E. Coli [1, 8]: 100 µg/mL | Min. Inhibitory Concentration P. Aeruginosa [2, 8]: 100 µg/mL | Min. Inhibitory Concentration S. epidermidis [3, 8]: 100 µg/mL

Ac-LKLLKKKLKKLKKLLKKL-NH2 [7 (SEQ ID NO: 26)]
Min. Inhibitory Concentration E. Coli [1, 9]: 5 µg/mL | Min. Inhibitory Concentration P. Aeruginosa [2, 9]: 30 µg/mL | Min. Inhibitory Concentration S. epidermidis [3, 9]: 5 µg/mL

Ac-LKLLKKLKKKLKKLLKKL-NH2 [8 (SEQ ID NO: 27)]
Min. Inhibitory Concentration E. Coli [1, 9]: 5 µg/mL | Min. Inhibitory Concentration P. Aeruginosa [2, 9]: 20 µg/mL | Min. Inhibitory Concentration S. epidermidis [3, 9]: 10 µg/mL

Ac-LKLLKKLLKKKKKLLKKL-NH2 [11 (SEQ ID NO: 28)]
Min. Inhibitory Concentration E. Coli [1, 9]: 5 µg/mL | Min. Inhibitory Concentration P. Aeruginosa [2, 9]: 30 µg/mL | Min. Inhibitory Concentration S. epidermidis [3, 9]: 5 µg/mL

Ac-LKLLKKLLKKLKKKLKKL-NH2 [14 (SEQ ID NO: 29)]
Min. Inhibitory Concentration E. Coli [1, 9]: 5 µg/mL | Min. Inhibitory Concentration P. Aeruginosa [2, 9]: 20 µg/mL | Min. Inhibitory Concentration S. epidermidis [3, 9]: 10 µg/mL

Ac-LKLLKKLLKKLKKLKKKL-NH2 [15 (SEQ ID NO: 30)]
Min. Inhibitory Concentration E. Coli [1, 9]: 10 µg/mL | Min. Inhibitory Concentration P. Aeruginosa [2, 9]: 20 µg/mL | Min. Inhibitory Concentration S. epidermidis [3, 9]: 5 µg/mL

Ac-LKLLKKLLKKLKKLLKKK-NH2 [18 (SEQ ID NO: 31)]
Min. Inhibitory Concentration E. Coli [1, 9]: 10 µg/mL | Min. Inhibitory Concentration P. Aeruginosa [2, 9]: 20 µg/mL | Min. Inhibitory Concentration S. epidermidis [3, 9]: 10 µg/mL

KKLLKKLKKLLKKL-NH2 [(SEQ. ID. NO.: 65) --NH2]
MIC E (E. coli) [4, 10]: 16 µg/mL | MIC P (P. aeruginosa) [5, 10]: 4 µg/mL | MIC S (S. aureus) [6, 10]: 8 µg/mL

KLLKKLKKLLKKL-NH2 [(SEQ ID NO: 64) --NH2]
MIC E (E. coli) [4, 11]: 32 µg/mL | MIC E (E. coli) [4, 10]: 16 µg/mL | MIC P (P. aeruginosa) [5, 11]: 16 µg/mL | MIC P (P. aeruginosa) [5, 10]: 8 µg/mL | MIC S (S. aureus) [6, 11]: 32 µg/mL | MIC S (S. aureus) [6, 10]: 8 µg/mL

LKKLKKLLKKL-NH2 [(SEQ ID NO: 67) --NH2]
MIC E (E. coli) [4, 11]: 128 µg/mL | MIC E (E. coli) [4, 10]: 16 µg/mL and 32 µg/mL | MIC P (P. aeruginosa) [5, 11]: 128 µg/mL | MIC P (P. aeruginosa) [5, 10]: 32 µg/mL | MIC S (S. aureus) [6, 11]: 128 µg/mL | MIC S (S. aureus) [6, 10]: 8 µg/mL

LKKLLKKLKKLLKKL-NH2 [(SEQ. ID. NO.: 66) --NH2]
MIC E (E. coli) [4, 10]: 16 µg/mL | MIC P (P. aeruginosa) [5, 10]: 4 µg/mL | MIC S (S. aureus) [6, 10]: 8 µg/mL
